# From PubChem BioAssay AID1345083 (National Center for Advancing Translational Sciences (NCATS), 2018)
# Several values for one entry are separate records, joined by “and”; a condition that tells them apart may be missing. Equal entries are not always repeated. Out of some 94,000 compounds screened, about 6,200 (6.6%) were called active. The inconclusive results got no clear call from the source; some entries with a clear call stand among them for comparison. Calls come from the whole dose curve; as a rule, active = well fitted inhibition curve with a large enough effect; inconclusive = small, poorly fitted or top-dose-only effect; inactive = flat fitted curve, though single readings scatter. A potency beside an inconclusive call is a rough fit, not a confirmed value.
# Assay: Cytotoxic Profiling in HEK 293 Cell Line of Diverse Libraries Using Quantitative High-Throughput Screening; note: nearly all actives have a fitted effect of over 60% in size
# Settings: HEK 293 viability, ATP luminescence (CellTiter-Glo), 48-72 h; series mostly up to 115 µM
# In short: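 Luminescence from cellular ATP, measured with CellTiter-Glo, indicates HEK 293 viability. Cells plated at 250 cells/well are treated with compound for 48 or 72 hr at 37 degree Celsius before reagent addition.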
# Potency is the fitted concentration of half-maximal effect; tags give direction and shape of the fitted curve.
row,Structure (SMILES),Potency
1,O=C(NCc1ccc(Cl)cc1)c1ccc2nnc(-c3ccoc3)n2c1,"inconclusive: 89.1 µM [inhibitor, single point]"
2,Cc1cc2c(-c3cccc(CO)c3)nc(-c3c(C)noc3C)cc2[nH]1,"inconclusive: 35.5 µM [inhibitor, partial curve, poor fit]"
3,COc1ccccc1-c1ccc2ncc(Nc3cc(F)cc(N4CCOCC4)c3)n2n1,"inconclusive: 44.7 µM [inhibitor, full curve]"
4,CN(C)CCNC(=O)[C@H]1C[C@@](C)(C(=O)O)N(C)[C@H]1c1ccc(Cl)cc1,inactive
5,COCc1nc(-c2ccc(OC3CN(Cc4cccs4)C3)cc2)no1,"inconclusive: 56.2 µM [inhibitor, partial curve, poor fit]"
6,CC(C)N1C(=O)C2(CCCC2)C1C(=O)NCc1ccccn1 (centres undefined),inactive
7,O=C1N(CCc2ccccc2)c2ccccc2C12CCN([S+](=O)([O-])c1cccc(C(F)(F)F)c1)C2 (centres undefined),"inconclusive: 39.8 µM [inhibitor, full curve, poor fit] and inconclusive: 79.4 µM [inhibitor, partial curve]"
8,CC(C)N1C[C@H](O)C[C@H]1c1nnc2n1CCN(C(=O)C1CC1)CC2,"inconclusive: 100 µM [inhibitor, single point]"
9,COc1ccc(NC(=O)c2ccc3c(c2)N(C(=O)c2ccc(F)cc2)CC3)c(C)c1,"inconclusive: 50.1 µM [inhibitor, partial curve, poor fit]"
10,CN(C)c1ccc(CN2CCC3(C2)C(=NC2CCCCC2)NC(=O)N3c2cc(F)cc(F)c2)cc1 (centres undefined),"inconclusive: 50.1 µM [inhibitor, partial curve, poor fit]"
11,CC(C)NC(=O)NC1CC2(CCN(C(=O)C3CCN(C)CC3)CC2)c2ccccc21 (centres undefined),inactive
12,CSc1ccc(-c2cccc(C(=O)NCC(=O)NCc3ccccc3)c2)cc1,"inconclusive: 8.91 µM [inhibitor, full curve, poor fit]"
13,CC(C)C(=O)N1Cc2ccccc2CC2(CCCCN2Cc2ccccn2)C1 (centres undefined),"inconclusive: 50.1 µM [inhibitor, partial curve, poor fit]"
14,CN1CCN(Cc2nnc(C(=O)N3CCC[C@@H]3c3ccc(Br)cc3)n2Cc2ccccc2)CC1,"inconclusive: 79.4 µM [inhibitor, partial curve]"
15,CCOc1ccccc1CN1CCC2(CCN(CCC(C)C)CC2)Oc2ccccc21,"inconclusive: 44.7 µM [inhibitor, partial curve, poor fit]"
16,CCOc1nccn2c(-c3ccc(CNc4ccc(OC)nc4)cc3)cnc12,"inconclusive: 89.1 µM [inhibitor, partial curve]"
17,Cc1ccccc1-c1cc2c(ccn2C)c(C(=O)NCCc2cnc[nH]2)n1,"inconclusive: 79.4 µM [inhibitor, partial curve]"
18,CC1=C[C@@H](CNCc2ccco2)[C@H](C(C)C)C[C@H]1Cc1nnc(C(C)(C)C)o1,active: 63.1 µM
19,Cc1cccc(NC(=O)c2ccc(CN3C(=O)NC4(CCOCC4)C3=O)cc2)c1,"inconclusive: 89.1 µM [inhibitor, single point]"
20,COc1ccc(NC(=O)Cn2cccc2-c2nc(-c3ccc4c(c3)OCO4)no2)cc1,inactive
21,Cc1ccccc1C(=O)NCc1nnc2ccc(-c3ccccc3)nn12,"inconclusive: 100 µM [inhibitor, single point]"
22,COc1cccc(NC(=O)Cn2c(-c3ccccc3)nc(C)c(CCO)c2=O)c1,"inconclusive: 56.2 µM [inhibitor, partial curve, poor fit]"

row,Structure (SMILES),Potency
1,CC1CCCN(C(=O)C2CCCN(c3cnc4nccnc4c3)C2)C1 (centres undefined),inactive
2,O=c1cc(-c2cccnc2)nc(-c2cccc(CN3CCNCC3)c2)[nH]1,"inconclusive: 39.8 µM [inhibitor, full curve]"
3,Cc1nc(-c2ccc(F)cc2)n(CC(=O)Nc2cccc(C#N)c2)c(=O)c1CCO,"inconclusive: 50.1 µM [inhibitor, partial curve, poor fit]"
4,N#Cc1cccnc1N1CCN(c2nccc(N3CCCC(O)C3)n2)CC1 (centres undefined),"inconclusive: 79.4 µM [inhibitor, partial curve, poor fit]"
5,C=CCNC(=O)N1CC[C@H]2CC(=O)N([C@H](C(N)=O)C(C)C)CC[C@H]2C1,inactive
6,CC(C)(C(=O)NCc1ccc(OC(F)(F)F)cc1)C1CCOCC1,"inconclusive: 35.5 µM [inhibitor, partial curve, poor fit]"
7,COc1ccccc1CC(=O)N1CCC(c2n[nH]c(=O)n2Cc2ccc(C)cc2)CC1,"inconclusive: 89.1 µM [inhibitor, partial curve, poor fit]"
8,O=C(Nc1ccccn1)[C@@H]1C[C@@H](c2ccc(F)cc2)N([S+](=O)([O-])c2ccccc2)C1,"inconclusive: 112 µM [inhibitor, partial curve, poor fit]"
9,O=C(Nc1cccc(-c2nnc3n2CCCC3)c1)c1cc(F)ccc1F,inactive
10,O=C(NC1CCCCC1)C1CCCN(c2nccc(Nc3ccccc3F)n2)C1 (centres undefined),"inconclusive: 35.5 µM [inhibitor, partial curve, poor fit]"
11,CCOc1ccccc1NC(=O)Cn1c(N2CCc3ccccc3C2)nc(C)cc1=O,"inconclusive: 39.8 µM [inhibitor, partial curve, poor fit]"
12,N[S+](=O)([O-])c1ccc(C(=O)N2CC(c3ncc4c(-c5ccccc5)nccn34)C2)cc1,inactive
13,Cc1noc2c(NC(C)C)cc(-c3cccs3)nc12,"inconclusive: 126 µM [inhibitor, partial curve, poor fit]"
14,COCCNC(=O)C1CCCN1c1nccc(Nc2ccccc2F)n1 (centres undefined),inactive
15,Cc1ccc(C(=O)N2CCC(Cc3nc(-c4cnccn4)no3)CC2)c(C)c1,"inconclusive: 89.1 µM [inhibitor, single point]"
16,O=C(CN1C(=O)NC(c2ccc(Cl)cc2)C2=C1COC2=O)Nc1cc(F)cc(F)c1 (centres undefined),active: 25.1 µM
17,CCN(Cc1ccncc1)C(=O)C1(Oc2ccc(C)cc2)CCNCC1,inactive
18,Cc1noc(-c2cccs2)c1C(=O)NC(C)c1cccc2ccccc12 (centres undefined),"inconclusive: 50.1 µM [inhibitor, partial curve, poor fit]"
19,CN1CCCCCC(O)c2cc(C(=O)NCc3nc4ccccc4n3C)ccc21 (centres undefined),"inconclusive: 79.4 µM [inhibitor, partial curve, poor fit]"
20,CCCn1cc(-c2ccnc(NCc3cccc(C)c3)n2)c(C)n1,"inconclusive: 50.1 µM [inhibitor, partial curve, poor fit]"
21,O=C(NCc1nnc2n1CCCC2)c1cccc(C2CCNC2)c1 (centres undefined),"inconclusive: 89.1 µM [inhibitor, single point]"
22,CCN1c2cc(C(=O)NCc3cccc(Br)c3)ccc2C(=O)N2CCCCC21 (centres undefined),active: 31.6 µM

row,Structure (SMILES),Potency
1,O=C(C1CCCC1)N1CCC(Oc2cnc3c(ccn3-c3cncnc3)c2)CC1,"inconclusive: 100 µM [inhibitor, partial curve]"
2,CC(C)Cn1c(=O)c(C(=O)N2CCN(C(=O)c3ccccc3F)CC2)nc2cccnc21,inactive
3,O=C(NC1CCCC1)c1noc(-c2ccc[nH]c2=O)n1,inactive
4,COc1ccc(-c2cn3c(n2)CO[C@@H](CNCc2ccc(Cl)cc2)C3)cc1,active: 89.1 µM
5,C[C@H](N)C(=O)N1CCC(n2nccc2NC(=O)Nc2cccc(F)c2)CC1,inactive
6,O=C(NCc1ccc(F)cc1)C1CCc2nnc(C3CC3)n21 (centres undefined),inactive
7,CN(Cc1ccccc1C(F)(F)F)C(=O)c1ccc(Cl)nc1,inactive
8,O=C(NCc1cccnc1)c1ccc2c(c1)N(C(=O)c1ccc(F)cc1)CC2,"inconclusive: 50.1 µM [inhibitor, partial curve, poor fit]"
9,COc1ccc(-c2cc3c(cn2)CN(Cc2cccnc2)CCN3)cc1OC,"inconclusive: 100 µM [inhibitor, partial curve, poor fit]"
10,FC(F)(F)c1ccc(CN2CC[C@H](c3nnc(-c4ccccc4)o3)C2)cc1,"inconclusive: 70.8 µM [inhibitor, partial curve, poor fit]"
11,COc1ccc2c(c1)CN(CC1CC1)C(=O)CCN2CC(O)C(F)(F)F (centres undefined),inactive
12,COc1cccc(CNC(=O)N2CCC(c3cc(-c4cccc(OC)c4)n[nH]3)CC2)c1,"inconclusive: 56.2 µM [inhibitor, partial curve, poor fit]"
13,COc1ccc(-c2cc(N3CCCN(C(=O)c4ccc(C)cc4)CC3)n[nH]2)cc1,"inconclusive: 50.1 µM [inhibitor, partial curve, poor fit]"
14,O=C1NCCCCCCN(Cc2cccc(F)c2)[C@H]2CCC[C@@H]12,active: 79.4 µM
15,CCCCSc1nc(N)cc(N2CCCC(OCc3cccnc3)C2)n1 (centres undefined),"inconclusive: 50.1 µM [inhibitor, partial curve, poor fit]"
16,CC(C)C(=O)N1CCC2(CC1)N(C)C(=O)CS2(=O)=O,inactive
17,COc1ccc(-c2ccc3nc(-c4ccccc4Br)oc3c2)c(OC)c1OC,"inconclusive: 79.4 µM [inhibitor, single point]"
18,CCOC(=O)CC1(NC(=O)N2CCc3c(nc(-c4ccccc4)[nH]c3=O)C2)CCCCC1,inactive
19,CN(C)C(=O)c1cccc(-c2cc(F)c3nc(N)sc3c2)c1,"inconclusive: 50.1 µM [inhibitor, partial curve, poor fit]"
20,CC(C)(O)C#Cc1ccc(CN2CCC(CO)(CCCc3ccccc3)CC2)cc1,"inconclusive: 50.1 µM [inhibitor, partial curve, poor fit]"
